# The full ranking holds about 81,000 sequences; the median of “one-hybrid fitness for binding parS DNA” is about -0.17, and the highest 2% start at about 0.51. The list shows a part of the results.
# B1: Caulobacter ParB omega fusion; a variant is named by its letters at X, in order, B8GW30 (parent)
# chain: MESVVVGEPGMSEGRRGLGRGLSALLGEVDAAPAQAPGEQLGGSREAPIEILQRNPDQPRRTFREEDLEDLSNSIREKGVLQPILVRPSPDTAGEYQIVAGERAWRAAQRAGLKTVPIMVRELDDLAVLEIGIIENVQRADLNVLEEALSYKVLMEKFERTQENIAQTIGKSXSHVANXMRLLXLPDEVQSYLVSGELTAXHARAIAAAADPVALAKQIIEGGLSVRETEALARKAPNLSAGKSKGGRPPRVKDTDTQALESDLSSVLGLDVSIDHRGSTGTLTITYATLEQLDDLCNRLTRGI
# Variants of: B1
# Experiment: one-hybrid fitness for binding parS DNA (scaled: cognate 1, non-cognate 0); higher = stronger binding
# Conditions: with parS DNA site
# Summary of the method: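 Pre- and post-selection plasmids were Illumina-sequenced, three replicate libraries were pooled, and any variant with under 10 reads was removed. The libraries were Caulobacter ParB with four specificity codons randomised, selected in E. coli USO through a HIS3 reporter whose site is 19 bp from the promoter. Cells grew 48 hours at 37°C on M9 without histidine, with 0.1 mM IPTG and 5 mM 3-AT. Fitness is the log change in variant-to-wild-type read ratio, rescaled against cognate and non-cognate.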
row,Variant,one-hybrid fitness for binding parS DNA
1,AQFR,≤ 0.2
2,LRVM,≤ 0.2
3,GDTY,≤ 0.2
4,QMCC,≤ 0.2
5,ITSQ,≤ 0.2
6,NINW,≤ 0.2
7,GSWA,≤ 0.2
8,YHHM,≤ 0.2
9,PIRE,≤ 0.2
10,CRVI,≤ 0.2
11,WTPC,≤ 0.2
12,TGTP,≤ 0.2
13,LKVG,≤ 0.2
14,ATDN,≤ 0.2
15,QENY,≤ 0.2
16,HMAM,≤ 0.2
17,TLQN,≤ 0.2
18,RIDR,≤ 0.2
19,DLFT,≤ 0.2
20,SPKM,≤ 0.2
21,TTMG,≤ 0.2

row,Variant,one-hybrid fitness for binding parS DNA
1,ILKH,≤ 0.2
2,NSFR,≤ 0.2
3,PLEG,≤ 0.2
4,GPIV,≤ 0.2
5,AGPI,≤ 0.2
6,VVPA,≤ 0.2
7,PMNG,≤ 0.2
8,RWWC,0.521
9,DLPA,≤ 0.2
10,KYLR,≤ 0.2
11,VCQY,≤ 0.2
12,GVIP,≤ 0.2
13,TSRF,≤ 0.2
14,AVHR,≤ 0.2
15,TQPK,≤ 0.2
16,FKTG,≤ 0.2
17,SCNR,≤ 0.2
18,PWCR,≤ 0.2
19,LLTL,≤ 0.2
20,PPQM,≤ 0.2
21,SIQN,≤ 0.2

row,Variant,one-hybrid fitness for binding parS DNA
1,CTRH,≤ 0.2
2,RCWK,0.252
3,GTTL,≤ 0.2
4,RESW,≤ 0.2
5,SAWC,≤ 0.2
6,VAGW,≤ 0.2
7,HLRF,≤ 0.2
8,GMLG,≤ 0.2
9,QYPT,≤ 0.2
10,HKFT,≤ 0.2
11,WNKG,≤ 0.2
12,HVCC,≤ 0.2
13,MMVT,≤ 0.2
14,WTHF,≤ 0.2
15,TVAI,≤ 0.2
16,ADHS,≤ 0.2
17,RACD,≤ 0.2
18,HLRC,≤ 0.2
19,DATP,≤ 0.2
20,LERF,≤ 0.2
21,WGNG,≤ 0.2

row,Variant,one-hybrid fitness for binding parS DNA
1,RGTR,≤ 0.2
2,LMNY,≤ 0.2
3,TYKR,≤ 0.2
4,GKWG,≤ 0.2
5,HIGR,≤ 0.2
6,QWIS,≤ 0.2
7,TTAE,≤ 0.2
8,EVNE,≤ 0.2
9,GERR,≤ 0.2
10,SWAR,≤ 0.2
11,GPYR,≤ 0.2
12,RVMD,≤ 0.2
13,IVSC,≤ 0.2
14,HNRA,≤ 0.2
15,SFPV,≤ 0.2
16,QYWR,≤ 0.2
17,HSVF,≤ 0.2
18,PERA,≤ 0.2
19,LKRK,≤ 0.2
20,QLGK,≤ 0.2
21,QKIK,≤ 0.2
